In PubChem BioAssay AID1508623 (National Center for Advancing Translational Sciences (NCATS), 2021):
Among all 48,000 compounds or so, about 450 (0.94%) were called active. Another 19% or so got no clear call; they are omitted. The call rests on the fitted dose curve; in most records, active means well fitted inhibition curve with a large enough effect; inconclusive means small, poorly fitted or top-dose-only effect; inactive means no such curve, though single readings can be large or run the other way. The list shows a part of the results.

test: Primary qHTS for Identification of Small Molecule Inhibitors of Huntingtin Promoter Activity; conditions: HEK293 HTT promoter firefly luciferase reporter (activity 0% = vehicle and -100% = no light), 24 h; series mostly up to 57.5 µM; activity change, negative = inhibition: at the top concentration; further: nearly all actives have a fitted effect of over 50% in size
In short: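 HEK293 Fluc reporter, 2,500 cells/well, 24 h pre-culture; cpds up to 57.5 uM final, 24 h 37 degrees C; Dual-Glo, 10 min RT; normalized vehicle = 0%, zero RLU = -100%.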

Row | SMILES | activity change, negative = inhibition
1 | CC1CCN(CC2CCN(C(=O)NCc3ccccc3)CC2)CC1 | inactive: -16.8%
2 | CCCCCCn1nnc2sc(-c3ccccc3)cc2c1=O | inactive: 16.6%
3 | CCC1CN(C(=O)Nc2ccccc2F)c2cc(C)ccc2O1 (configuration not stated) | inactive: 0.439%
4 | CCOc1ccc(-c2nc(Cn3c(=O)cc(C)c4c(C)nn(-c5ccccc5)c43)c(C)o2)cc1 | inactive: 1.01%
5 | COc1ccc(C2CC(=O)c3cc(-c4nc(-c5cccc([N+](=O)[O-])c5)cs4)c(=O)n(-c4ccccc4)c3C2)cc1 (configuration not stated) | inactive: -4.82%
6 | CCn1cc(C(=O)N(C)Cc2ccccc2)c(=O)c2cc(S(=O)(=O)N3CCc4ccccc4C3)ccc21 | inactive: -0.452%
7 | CCc1ccc(NC(=O)CSc2ccnc(=O)[nH]2)cc1 | inactive: 18.5%
8 | Cc1nn(C)c(C)c1S(=O)(=O)N(CC(=O)NCCc1ccccc1)c1ccc(C(C)C)cc1 | inactive: 2.82%
9 | Cc1ccc(C(=O)c2cn(Cc3cccc(Cl)c3)c3nc(C)ccc3c2=O)cc1 | inactive: -22.7%
10 | O=C(CSCc1ccc(F)cc1)N1CCN(c2ccccc2F)CC1 | inactive: 1.83%
11 | Cc1cc2c(cc1S(=O)(=O)NCc1ccc(F)cc1)n(C)c(=O)c(=O)n2C | inactive: -9.16%
12 | Cc1cccc(N2C(=O)CC(c3ccc(F)cc3)C3=C2COC3=O)c1 (configuration not stated) | inactive: 0%
13 | Cc1cn2c(=O)cc(COC(=O)c3ccc(NC(=O)COc4ccccc4C)cc3)nc2s1 | inactive: -19.7%
14 | CCOC(=O)c1cc(-c2ccccc2)n(-c2cccc(C(=O)Nc3cccc(SC)c3)c2)c1C | inactive: -20.6%
15 | CN1C(=O)C(Cc2c[nH]c3ccccc23)NC1=S (configuration not stated) | inactive: 13.6%
16 | COc1ccc(CCC(=O)NCCc2csc(-c3ccc(F)cc3)n2)cc1 | inactive: -6.13%
17 | COc1ccc(OC)c(NC(=O)CSc2nc(=O)n(CCN(C)C)c3c2CCC3)c1 | inactive: -13.4%
18 | COc1cc(NC(=O)CC2C(=O)N(c3ccccc3)C(=O)N2Cc2ccc(F)cc2)cc(OC)c1 (configuration not stated) | inactive: -13.6%
19 | CCc1ccccc1NC(=O)N1CCOc2ccccc21 | inactive: -16.1%
20 | O=C(Cn1ncc2c([nH]c3ccccc32)c1=O)NCCCN1CCN(c2ccc(F)cc2)CC1 | inactive: -6.68%
21 | CCc1ccc(-n2c(=O)c3c4c(sc3n(Cc3ccccc3C#N)c2=O)CCCC4)cc1 | inactive: 15.3%
22 | CCCn1c2ccccc2c2cnn(CC(=O)Nc3cc(C)c(Cl)cc3OC)c(=O)c21 | inactive: -9.73%
23 | CC1CCc2c(sc(NC(=O)Cc3ccccc3)c2C(=O)Nc2ccc(Cl)cc2)C1 (configuration not stated) | inactive: -19%
24 | Cc1cc(Nc2ccccc2F)n2nc(-c3ccccc3)nc2n1 | inactive: -15.5%
25 | COC(=O)c1ccc(Cl)cc1NC(=O)N1CC2CCCN2c2ccccc21 (configuration not stated) | inactive: -32.5%
26 | COc1ccc(S(=O)(=O)NCc2ccc3c(c2)CCN3C(=O)c2ccccc2)cc1OC | inactive: -26.6%
27 | COc1ccc(NC(=O)CN2C(=O)CCn3nc(-c4cccn4C)cc32)cc1 | inactive: 0%
